In PubChem BioAssay (NCI):
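These data come from cells grown in 96-well plates and exposed to compound for 48 hours at five concentrations. GI50 marks 50% less growth.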 For part of its entries the source gives two or more results. The list is limited to them. There may be further records. For part of these data: The tests behind the records often covered other concentration ranges, not given here; a value can be the end of its range. A tag in brackets gives the origin of a value. Letters hold for one entry only. For part of these data: The records of an entry are repeats (runs, samples, wells, individuals or studies).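 TGI is the concentration that stops growth completely.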

How the values were obtained:
Assay in all cases: NCI-60 cell line screen, 48 h
[1] = tested on: 786-0 renal
[2] = tested on: A498 renal
[3] = tested on: A549 NSCLC
[4] = tested on: ACHN renal
[5] = tested on: BT-549 breast
[6] = tested on: CAKI-1 renal
[7] = tested on: CCRF-CEM leukemia
[8] = tested on: COLO 205 colon
[9] = tested on: EKVX NSCLC
[10] = tested on: HCC-2998 colon
[11] = tested on: HCT-116 colon
[12] = tested on: HCT-15 colon
[13] = tested on: HL-60(TB) leukemia
[14] = tested on: HOP-62 NSCLC
[15] = tested on: HOP-92 NSCLC
[16] = tested on: HS 578T breast
[17] = tested on: HT29 colon
[18] = tested on: IGROV1 ovarian
[19] = tested on: K-562 leukemia
[20] = tested on: KM12 colon
[21] = tested on: LOX IMVI melanoma
[22] = tested on: M14 melanoma
[23] = tested on: MALME-3M melanoma
[24] = tested on: MCF7 breast
[25] = tested on: MDA-MB-231 breast
[26] = tested on: MDA-MB-435
[27] = tested on: MOLT-4 leukemia

Cc1nc(Nc2ncc(C(=O)Nc3c(C)cccc3Cl)s2)cc(N2CCN(CCO)CC2)n1
GI50 [1]: 123 nM [sample A, 1 test] and 63.7 nM [sample A, mean of 5 tests] and 56.1 nM [sample B, mean of 2 tests] and 31 nM [sample C, mean of 2 tests] | TGI [1]: 20 µM [sample A, 1 test] and 10.8 µM [sample A, mean of 5 tests] and 13.5 µM [sample B, mean of 2 tests] and > 10 µM [sample C, mean of 2 tests] | GI50 [2]: 22.4 nM [sample A, 1 test] and 32.8 nM [sample A, mean of 5 tests] and < 29.8 nM [sample B, mean of 2 tests] and 18.5 nM [sample C, mean of 2 tests] | TGI [2]: 187 nM [sample A, 1 test] and 803 nM [sample A, mean of 5 tests] and 360 nM [sample B, mean of 2 tests] and 203 nM [sample C, mean of 2 tests] | TGI [3]: 3.28 µM [sample A, 1 test] and 16.7 µM [sample A, mean of 5 tests] and 19.7 µM [sample B, mean of 2 tests] and > 10 µM [sample C, mean of 2 tests] | GI50 [4]: 18.4 nM [sample A, 1 test] and 12.2 nM [sample A, mean of 5 tests] and 24.5 nM [sample B, mean of 2 tests] and 7.41 nM [sample C, mean of 2 tests] | TGI [4]: 20 µM [sample A, 1 test] and 353 nM [sample A, mean of 5 tests] and 15.5 µM [sample B, mean of 2 tests] and 214 nM [sample C, mean of 2 tests] | GI50 [5]: 7.65 µM [sample A, 1 test] and 5.96 µM [sample A, mean of 4 tests] and 4.39 µM [sample B, 1 test] and > 6.36 µM [sample C, mean of 2 tests] | TGI [5]: 20 µM [sample A, 1 test] and 21.2 µM [sample A, mean of 4 tests] and 17.2 µM [sample B, 1 test] and > 10 µM [sample C, mean of 2 tests] | GI50 [6]: 18.8 nM [sample A, 1 test] and 11.9 nM [sample A, mean of 4 tests] and < 10.4 nM [sample B, mean of 2 tests] and 17.2 nM [sample C, mean of 2 tests] | TGI [6]: 873 nM [sample A, 1 test] and 51.9 nM [sample A, mean of 4 tests] and 151 nM [sample B, mean of 2 tests] and 131 nM [sample C, mean of 2 tests] | GI50 [7]: 7.33 µM [sample A, 1 test] and 5.29 µM [sample A, mean of 5 tests] and 5.85 µM [sample B, mean of 2 tests] and > 7.25 µM [sample C, mean of 2 tests] | TGI [7]: 20 µM [sample A, 1 test] and 52.5 µM [sample A, mean of 5 tests] and 47.5 µM [sample B, mean of 2 tests] and > 10 µM [sample C, mean of 2 tests] | GI50 [8]: 37.1 nM [sample A, 1 test] and 20.4 nM [sample A, mean of 5 tests] and 65.1 nM [sample B, 1 test] and 75.9 nM [sample C, mean of 2 tests] | TGI [8]: 20 µM [sample A, 1 test] and 2.78 µM [sample A, mean of 5 tests] and 2.96 µM [sample B, 1 test] and > 2.7 µM [sample C, mean of 2 tests] | TGI [9]: 20 µM [sample A, 1 test] and 25 µM [sample A, mean of 5 tests] and > 66.4 µM [sample B, mean of 2 tests] and > 10 µM [sample C, mean of 2 tests] | GI50 [10]: 13 µM [sample A, 1 test] and 11.8 µM [sample A, mean of 5 tests] and 12.5 µM [sample B, mean of 2 tests] and > 10 µM [sample C, mean of 2 tests] | TGI [10]: 20 µM [sample A, 1 test] and 27 µM [sample A, mean of 5 tests] and 26.5 µM [sample B, mean of 2 tests] and > 10 µM [sample C, mean of 2 tests] | GI50 [11]: 3.71 µM [sample A, 1 test] and 2.01 µM [sample A, mean of 4 tests] and 3.33 µM [sample B, mean of 2 tests] and 47.8 nM [sample C, mean of 2 tests] | TGI [11]: 20 µM [sample A, 1 test] and 18 µM [sample A, mean of 4 tests] and 16.3 µM [sample B, mean of 2 tests] and > 10 µM [sample C, mean of 2 tests] | TGI [12]: 20 µM [sample A, 1 test] and 18 µM [sample A, mean of 5 tests] and 36.5 µM [sample B, mean of 2 tests] and > 10 µM [sample C, mean of 2 tests] | GI50 [13]: 7.74 µM [sample A, 1 test] and 5.66 µM [sample A, mean of 5 tests] and 13.4 µM [sample B, mean of 2 tests] and > 8.51 µM [sample C, mean of 2 tests] | TGI [13]: 20 µM [sample A, 1 test] and 34 µM [sample A, mean of 5 tests] and 34.3 µM [sample B, mean of 2 tests] and > 10 µM [sample C, mean of 2 tests] | GI50 [14]: 36.4 nM [sample A, 1 test] and 14.5 nM [sample A, mean of 5 tests] and 61.1 nM [sample B, mean of 2 tests] and 29.5 nM [sample C, mean of 2 tests] | TGI [14]: 20 µM [sample A, 1 test] and 1.26 µM [sample A, mean of 5 tests] and 25.7 µM [sample B, mean of 2 tests] and > 10 µM [sample C, mean of 2 tests] | GI50 [15]: 75.2 nM [sample A, mean of 3 tests] and < 10 nM [sample B, 1 test] and 1.56 nM [sample C, 1 test] | TGI [15]: 49.7 µM [sample A, mean of 3 tests] and 20.5 nM [sample B, 1 test] and 37.9 nM [sample C, 1 test] | GI50 [16]: 25.1 nM [sample A, 1 test] and < 10.9 nM [sample A, mean of 5 tests] and < 15.9 nM [sample B, mean of 2 tests] and 2.65 nM [sample C, mean of 2 tests] | TGI [16]: 20 µM [sample A, 1 test] and 58.5 nM [sample A, mean of 5 tests] and 18.6 nM [sample B, mean of 2 tests] | TGI [17]: 41.2 µM [sample A, mean of 3 tests] and 1.14 µM [sample B, mean of 2 tests] and > 10 µM [sample C, mean of 2 tests] | GI50 [18]: 25.2 nM [sample A, 1 test] and 10 nM [sample A, mean of 4 tests] and < 12.1 nM [sample B, mean of 2 tests] and 4.14 nM [sample C, 1 test] | TGI [18]: 20 µM [sample A, 1 test] and 390 nM [sample A, mean of 4 tests] and 330 nM [sample B, mean of 2 tests] and 141 nM [sample C, 1 test] | TGI [19]: 20 µM [sample A, 1 test] and > 63 µM [sample A, mean of 4 tests] and > 100 µM [sample B, 1 test] and > 10 µM [sample C, mean of 2 tests] | TGI [20]: 20 µM [sample A, 1 test] and 25.4 µM [sample A, mean of 5 tests] and 26.7 µM [sample B, mean of 2 tests] and > 10 µM [sample C, mean of 2 tests] | TGI [21]: 367 nM [sample A, 1 test] and 483 nM [sample A, mean of 5 tests] and 85 nM [sample B, mean of 2 tests] and 60.4 nM [sample C, mean of 2 tests] | TGI [22]: 20 µM [sample A, 1 test] and 14.8 µM [sample A, mean of 5 tests] and 13.5 µM [sample B, mean of 2 tests] and > 10 µM [sample C, mean of 2 tests] | TGI [23]: 20 µM [sample A, 1 test] and 17.9 µM [sample A, mean of 3 tests] and 25.7 µM [sample B, mean of 2 tests] and > 10 µM [sample C, mean of 2 tests] | GI50 [24]: 8.32 µM [sample A, 1 test] and 12.6 µM [sample A, mean of 5 tests] and 12.3 µM [sample B, mean of 2 tests] and > 10 µM [sample C, mean of 2 tests] | TGI [24]: 20 µM [sample A, 1 test] and 30.9 µM [sample A, mean of 5 tests] and 37.1 µM [sample B, mean of 2 tests] and > 10 µM [sample C, mean of 2 tests] | TGI [25]: 3.8 µM [sample A, 1 test] and 3.37 µM [sample A, mean of 5 tests] and 21.7 µM [sample B, mean of 2 tests] and 3.04 µM [sample C, mean of 2 tests] | TGI [26]: 20 µM [sample A, 1 test] and 18.7 µM [sample A, mean of 5 tests] and 23.6 µM [sample B, mean of 2 tests] and > 10 µM [sample C, mean of 2 tests] | TGI [27]: 20 µM [sample A, 1 test] and 44.9 µM [sample A, mean of 5 tests] and 39.9 µM [sample B, mean of 2 tests] and > 10 µM [sample C, mean of 2 tests]
